Reference: PubChem BioAssay AID602156 (GNF / Scripps Winzeler lab, 2011)
Some of the results follow. Further columns of the screen follow, without active or inactive calls.

Experiment: Plasmodium liver-stage growth inhibition, dose response, imaging, Malaria Box, P. yoelii, HepG2-A16-CD81EGFP (AID 602156);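 note: infected cells exposed to compound for 48 hours before fixation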
Conditions: P. yoelii liver stage in HepG2-A16-CD81EGFP, measured here: liver parasite size at 10 uM
In the case of `O=[N+]([O-])c1cc(C(F)(F)F)ccc1N1CCCN(C(=S)Nc2ccccc2)CC1`, the parasite size is reported as 93.7 um. Work on `CC1(C)N=C(N)N=C(N)N1c1ccc(Oc2ccc(Cl)cc2)c(Cl)c1` yielded a parasite size of 27.8 um. Work on `COc1ccc2c(C)nc(Nc3nc(C)cc(-c4ccccc4)n3)nc2c1` yielded a parasite size of 170 um. In the case of `COc1ccc2sc(Nc3nc(-c4ccccn4)cs3)nc2c1`, the parasite size is reported as 28.9 um. For `Cc1nc([P+](c2ccccc2)(c2ccccc2)c2ccccc2)c(N2CCCCC2)o1`, the parasite size was 25.6 um. For `Cc1ccc(-n2c(-c3ccccc3)cc(C=NNC(=O)c3cccc(O)c3)c2-c2ccccc2)cc1`, the parasite size was 26.7 um. Compound `Cc1ccc2[nH]c(C)c(Br)c(=O)c2c1` has a parasite size of 30 um. For `O=C(Nc1c2ccccc2nc2ccccc12)c1cc(Cl)ccc1O`, the parasite size was 43.5 um. `O=C(NC1CC1)c1ccc(CSCc2ccccc2Cl)o1` gave a parasite size of 26.1 um. `Cc1ccc(-c2c[n+]3c(n2-c2ccccc2)SCC3)cc1` showed a parasite size of 62.5 um. With `CN(C)CCCN(Cc1cc2cc3c(cc2[nH]c1=O)OCO3)C(=S)Nc1cccc(Cl)c1` the parasite size was 60.2 um. Work on `O=C(NC1CC1)C1CCN(c2cccc3c2C(=O)N(Cc2cccc(C(F)(F)F)c2)C3=O)CC1` yielded a parasite size of 24 um. `CCCN(CCC)CCCNc1ccc(C(=O)Nc2ccc(C)c(F)c2)cc1[N+](=O)[O-]` showed a parasite size of 83.5 um. In the case of `CCCCNC(=O)C1CCC(CN(Cc2c(Cl)cccc2Cl)S(=O)(=O)c2ccc(Br)cc2)CC1` (configuration not stated), the parasite size is reported as 29.6 um. In the case of `Cc1ccc(-c2c[n+]3c(n2-c2ccc(C)cc2)CCCCC3)cc1`, the parasite size is reported as 27.2 um. In the case of `OCCNc1nc(Nc2ccccc2)nc2ccccc12`, the parasite size is reported as 62.1 um. In the case of `CCCCCCCCn1c(C)[n+](C)c2cc(Cl)c(Cl)cc21`, the parasite size is reported as 40.4 um. Work on `CCCCN(CC)CCNC(=O)C1c2ccccc2C(=O)N(Cc2ccc(F)cc2)C1c1ccc(OC)cc1` (configuration not stated) yielded a parasite size of 63.4 um. `Cc1ccc(-n2c(-c3ccccc3)cc(C=NNC(=O)c3cccc(-n4c(C)ccc4C)c3)c2-c2ccccc2)cc1` showed a parasite size of 30.1 um. With `C=CC[N+]1(CC#Cc2cccc3ccccc23)CCCCC1` the parasite size was 80.1 um. Compound `CCNC(=O)C1CCN(c2cccc3c2C(=O)N(C2CCCCCCC2)C3=O)CC1` has a parasite size of 30.5 um. `CCOC(=O)C1=C(C)NC2=C(C(=O)C(C(=O)OCC)C(c3ccc(OC)cc3)C2)C1c1ccc(OC)c(OC)c1` (configuration not stated) gave a parasite size of 86.5 um. In the case of `CCCCC(=O)NC(c1cccc([N+](=O)[O-])c1)c1ccc2cccnc2c1O` (configuration not stated), the parasite size is reported as 23.7 um. Compound `N=c1c2c(n(Cc3ccc(Cl)cc3)c3c1CCC3)CCC2` has a parasite size of 32.6 um. With `c1ccc(CSc2scnc2[P+](c2ccccc2)(c2ccccc2)c2ccccc2)cc1` the parasite size was 21.6 um. In the case of `Cc1ccc2cc(C)c(Nc3ccc(Cl)cc3)nc2c1`, the parasite size is reported as 42.1 um. With `CC1(C)C2CCC(C2)C1(C)NC(=S)NN=Cc1ccccn1` (configuration not stated) the parasite size was 28.3 um. Work on `CC[n+]1cc(-c2ccc(C)cc2)sc1C=C1Sc2ccccc2N1C` yielded a parasite size of 37.9 um. Compound `CCCCCC[P+](N(CCC)CCC)(N(CCC)CCC)N(CCC)CCC` has a parasite size of 30.3 um. Compound `O=C1C2=C(Nc3ccccc3SC2c2ccco2)c2ccccc21` (configuration not stated) has a parasite size of 31.6 um. For `O=C1c2ccccc2C2=Nc3ccccc3SC(c3ccccc3F)C12` (configuration not stated), the parasite size was 28.6 um. `CSc1nnc(-c2cccc([N+](=O)[O-])c2)n1Cc1ccccc1` showed a parasite size of 97.4 um. In the case of `COc1ccc2cc3[n+](cc2c1OC)CCc1cc2c(cc1-3)OCO2`, the parasite size is reported as 102 um. For `CCOC(=O)C1=C(C)NC2=C(C(=O)C(C(=O)OCC)C(c3cccc(OC)c3)C2)C1c1cc(OC)c(OC)c(OC)c1` (configuration not stated), the parasite size was 110 um. `COc1ccc(Nc2nc(NCc3ccccc3)c3ccccc3n2)cc1` showed a parasite size of 30 um. `Cc1ccc(N2C(N)=NC(N)=NC2(C)C)cc1` showed a parasite size of 35.1 um. In the case of `O=C(Cc1ccccc1)NC(c1ccc(Cl)cc1)c1ccc2cccnc2c1O` (configuration not stated), the parasite size is reported as 17.3 um. For `CCOC(=O)C1=C(C)NC2=C(C(=O)C(C(=O)OCC)C(c3ccccc3OC)C2)C1c1ccc([N+](=O)[O-])cc1` (configuration not stated), the parasite size was 76.3 um. For `CCCCCCCC[n+]1c(C)n(CC)c2cc(C(=O)OCC)ccc21`, the parasite size was 63.8 um. With `CCOc1ccc(Nc2cc(=O)oc3ccccc23)cc1` the parasite size was 43.9 um. Compound `Cc1[nH]c2ccccc2c(=O)c1Br` has a parasite size of 29.4 um. For `CN(Cc1ccccc1)C(=O)CSc1nc(NCc2ccccc2)c2ccccc2n1`, the parasite size was 67.8 um. `CCOC(=O)c1c[nH]c2c3c(ccc2c1=O)CCCC3` showed a parasite size of 26.2 um. With `CCOc1ccc(Nc2nc(NCc3ccco3)c3ccccc3n2)cc1` the parasite size was 75.8 um. Compound `Cc1cc(NC(c2cccc(Br)c2)c2ccc3cccnc3c2O)no1` (configuration not stated) has a parasite size of 16.3 um. In the case of `Cc1ccc(Nc2nc3c(N)nnc(N)c3nc2Nc2ccc(C)cc2)cc1`, the parasite size is reported as 50.3 um. Compound `CN(C)c1cc[n+](CC(=O)Nc2ccc(Cl)cc2)cc1` has a parasite size of 69.6 um. `c1ccc(-c2csc(Nc3nc4cc5c(cc4s3)OCO5)n2)nc1` gave a parasite size of 34.4 um. `CC(C)NCC(O)Cn1c2ccc(Cl)cc2c2cc(Cl)ccc21` (configuration not stated) showed a parasite size of 88.4 um. Work on `O=C(Nc1ccc2oc(-c3cccc4ccccc34)nc2c1)c1ccc([N+](=O)[O-])o1` yielded a parasite size of 14 um. For `CC[n+]1c(C=C2C=C(C)OC(C)=C2)sc2ccccc21`, the parasite size was 25.4 um. With `O=C1C2=C(Nc3ccccc3SC2c2cccs2)c2ccccc21` (configuration not stated) the parasite size was 25.9 um. In the case of `COc1ccc2nc(C)cc(Nc3ccc(Cl)c(Cl)c3)c2c1`, the parasite size is reported as 39.2 um. In the case of `CCOC(=O)c1cn(CC)c2cc(N(C)CCc3ccc(OC)c(OC)c3)c(F)cc2c1=O`, the parasite size is reported as 23.7 um. In the case of `CC(=O)N(C1=C(N(C)C)C(=O)c2ccccc2C1=O)c1ccc(F)cc1`, the parasite size is reported as 23.8 um. Compound `c1ccc(Cc2cc[n+](Cc3ccccc3)cc2)cc1` has a parasite size of 127 um. In the case of `COc1cccc(NC(=O)c2ccc(NCCCN3CC(C)CC(C)C3)c([N+](=O)[O-])c2)c1` (configuration not stated), the parasite size is reported as 87.6 um. Work on `CCN(CC)CCCN(Cc1cc2ccc(C)cc2[nH]c1=O)C(=S)Nc1cccc(Cl)c1` yielded a parasite size of 58.8 um. For `CCc1ccccc1N=C1c2c(cccc2[N+](=O)[O-])C(=O)C1C(C)=O` (configuration not stated), the parasite size was 83.4 um. For `Cc1cccc(N2C(N)=NC(N)=NC2(C)C)c1`, the parasite size was 38.5 um. With `O=C(c1cccc([N+](=O)[O-])c1)c1ccc(Cl)c(Cl)c1` the parasite size was 109 um. Work on `Cc1nc([P+](c2ccccc2)(c2ccccc2)c2ccccc2)c(SCc2ccccc2)o1` yielded a parasite size of 31.8 um. Compound `CCCC(=O)NC(c1ccc(Cl)cc1)c1ccc2cccnc2c1O` (configuration not stated) has a parasite size of 14.1 um. In the case of `CCCCc1c(C)[nH]c2ccc(Br)cc2c1=O`, the parasite size is reported as 26 um. Compound `CCCC(=O)N1CCN(c2nc(Cc3ccccc3)c3c(c2C#N)CC(C)(C)OC3)CC1` has a parasite size of 22.4 um. With `CCN1C(=O)N(CC)C(NNC(N)=S)C1NNC(N)=S` (configuration not stated) the parasite size was 104 um. Compound `C/C=C/[P+](c1ccccc1)(c1ccccc1)c1ccccc1` has a parasite size of 26.1 um.
